# Measurements from PubChem BioAssay (Tox21).
# This list was built around the results that the source calls inconclusive (neither active nor inactive); the mix of calls is not that of the screen. For some of these results: Where the call is inconclusive, the potency comes from a doubtful curve fit. The source made the active and inactive calls. Unless noted, the call rests on the fitted dose curve; in most records, active means well fitted curve in the direction sought with a large enough effect in the repeat runs; inconclusive means weak or mixed curves; inactive means no such curve, though single readings can be large; an effect the other way counts as inactive or inconclusive.
# Assays:
# [1] = target: Vitamin D3 receptor (Homo sapiens) (UniProt P11473); experiment: qHTS assay to identify small molecule agonists of the vitamin D receptor (VDR) signaling pathway (AID 743222; calls by dose curve; on activation: on the % scale 0 is the no-effect control and ±100 the full control effect); details: HEK293T VDR-UAS-bla, beta-lactamase FRET ratio, 16 h; activation: at 63.5 µM (top of the series) unless noted
# Sequence of UniProt P11473 (P11473 whole entry, looked up): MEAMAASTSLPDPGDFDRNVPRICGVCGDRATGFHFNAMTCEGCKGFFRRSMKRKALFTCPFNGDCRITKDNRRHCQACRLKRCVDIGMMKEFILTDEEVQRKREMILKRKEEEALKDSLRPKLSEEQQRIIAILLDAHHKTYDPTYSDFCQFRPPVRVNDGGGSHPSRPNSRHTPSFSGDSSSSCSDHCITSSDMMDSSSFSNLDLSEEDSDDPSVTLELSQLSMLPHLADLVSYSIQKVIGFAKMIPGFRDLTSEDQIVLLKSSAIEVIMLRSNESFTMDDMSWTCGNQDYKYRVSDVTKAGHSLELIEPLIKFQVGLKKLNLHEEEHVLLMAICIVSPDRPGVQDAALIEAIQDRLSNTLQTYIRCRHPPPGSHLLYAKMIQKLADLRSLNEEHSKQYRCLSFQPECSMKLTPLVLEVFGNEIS
# Procedure, shortened: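 Cells carrying a VDR-driven beta-lactamase reporter are seeded at 2,000 per well and rested 4 h. Compounds in DMSO are added for 16 h at 37C, and FRET substrate fluorescence is measured after 2 h at room temperature.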
# [2] = qHTS assay to identify small molecule antagonists of the vitamin D receptor (VDR) signaling pathway - cell viability counter screen (AID 743225); details: VDR-bla HEK293T viability, CellTiter-Glo luminescence, 16 h; viability change, negative = cytotoxic: at 61 µM (top of the series) unless noted; further: nearly all actives have a fitted effect of over 50% in size
# Procedure, shortened: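 Same-well multiplex: following 16 h treatment of HEK 293T cells carrying a UAS-driven beta-lactamase reporter with compound and agonist (3 nM final), and a 2 h FRET substrate step, CellTiter-Glo was added and luminescence read after 30 min.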
# [3] = qHTS assay to identify small molecule agonists of the endoplasmic reticulum stress response signaling pathway (AID 1159516; active means well fitted activation curve with a large enough effect in the signal ratio in the repeat runs, not every such curve was filed as active; inconclusive means weak or mixed curves, or effect the other way; the % refers to the signal ratio; on activation: on the % scale 0 is the no-effect control and ±100 the full control effect); details: ESRE-bla HeLa, ER stress beta-lactamase reporter, 5 h; activation: at 61 µM (top of the series) unless noted
# Procedure, shortened: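 Cells are seeded at 1,500 per well and incubated overnight. Compounds in DMSO are added for 5 hr at 37 C, then beta-lactamase FRET substrate for 2 hr at room temperature, and fluorescence at 460 and 530 nm is measured.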
# [4] = qHTS assay to identify small molecule antagonists of the retinoid-related orphan receptor gamma (ROR-gamma) signaling pathway - cell viability counter screen (AID 1159520); further: nearly all actives have a fitted effect of over 50% in size
# Procedure, shortened: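 Tet-on ROR gamma CHO cells (1,000/well) were plated 4 hr, given compounds in DMSO for 2 hr at 37 C, then induced with 1 uM final doxycycline for 16 hr. Viability was read as ATP by CellTiter-Glo luminescence after 30 min.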
# [5] = target: Retinoic acid receptor RXR-alpha (Homo sapiens) (UniProt P19793); experiment: qHTS assay to identify small molecule agonists of the RXR signaling pathway (AID 1159527; calls by dose curve; further: nearly all actives have a fitted effect of over 35% in size; on activation: on the % scale 0 is the no-effect control and ±100 the full control effect); details: HEK293T RXRa-UAS-bla, beta-lactamase ratio, 16 h; activation: at 76.8 µM (top of the series) unless noted
# Sequence of UniProt P19793 (P19793 whole entry, looked up): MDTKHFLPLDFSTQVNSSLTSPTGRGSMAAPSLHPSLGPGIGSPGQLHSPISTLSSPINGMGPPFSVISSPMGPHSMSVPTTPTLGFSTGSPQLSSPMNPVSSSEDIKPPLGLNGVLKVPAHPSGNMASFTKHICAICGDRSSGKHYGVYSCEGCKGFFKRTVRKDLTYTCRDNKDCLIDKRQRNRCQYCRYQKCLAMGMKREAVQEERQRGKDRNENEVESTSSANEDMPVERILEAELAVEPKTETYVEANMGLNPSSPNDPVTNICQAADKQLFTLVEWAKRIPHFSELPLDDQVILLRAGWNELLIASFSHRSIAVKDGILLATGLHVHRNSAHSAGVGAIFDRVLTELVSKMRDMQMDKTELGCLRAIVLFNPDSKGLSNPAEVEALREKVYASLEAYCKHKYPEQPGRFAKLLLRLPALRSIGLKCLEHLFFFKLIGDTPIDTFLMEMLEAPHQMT
# Procedure, shortened: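 Compounds in DMSO were added to RXR-alpha-UAS-bla HEK 293T cells kept in 2% charcoal-stripped serum, and incubated 16 hr at 37 C with 5% CO2. Reporter signal came from a 2 hr B/G FRET substrate step.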
# [6] = target: Peroxisome proliferator-activated receptor delta (Homo sapiens) (UniProt Q03181); experiment: qHTS assay to identify small molecule antagonists of the peroxisome proliferator-activated receptor delta (PPARd) signaling pathway (AID 743215; active means well fitted inhibition curve with a large enough effect in the signal ratio in the repeat runs, not every such curve was filed as active; inconclusive means weak or mixed curves, or effect the other way; inactive means no such curve, though single readings can be large or run the other way; the % refers to the signal ratio;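 further: cells stimulated with agonist L165041 at 300 nM final during compound exposure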); details: HEK293H PPARd-UAS-bla, beta-lactamase FRET ratio, antagonist, 17 h; ratio activity, negative = inhibition: at 62 µM (top of the series) unless noted
# Sequence of UniProt Q03181 (Q03181 whole entry, looked up): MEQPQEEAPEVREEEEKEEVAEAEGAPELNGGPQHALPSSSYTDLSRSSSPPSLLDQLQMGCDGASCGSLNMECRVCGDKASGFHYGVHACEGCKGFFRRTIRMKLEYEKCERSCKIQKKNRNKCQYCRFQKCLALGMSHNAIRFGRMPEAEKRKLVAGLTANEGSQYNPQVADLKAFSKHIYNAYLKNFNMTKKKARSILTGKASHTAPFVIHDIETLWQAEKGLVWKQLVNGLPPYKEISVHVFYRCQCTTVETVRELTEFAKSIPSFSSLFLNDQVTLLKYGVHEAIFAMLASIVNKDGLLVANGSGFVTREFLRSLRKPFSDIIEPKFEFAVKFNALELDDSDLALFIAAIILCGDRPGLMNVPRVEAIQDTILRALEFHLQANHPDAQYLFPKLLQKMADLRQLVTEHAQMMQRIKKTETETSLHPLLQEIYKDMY
# Procedure, shortened: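 Cells: HEK293H with a UAS-driven beta-lactamase reporter responsive to PPARd. Compounds were co-added with L165041 (300 nM, final) and incubated 17 h at 37 C before a 2 h room-temperature FRET substrate step and fluorescence reading.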
# [7] = target: Nuclear receptor ROR-gamma (Homo sapiens) (UniProt P51449); experiment: qHTS assay to identify small molecule antagonists of the retinoid-related orphan receptor gamma (ROR-gamma) signaling pathway (AID 1159521; further: nearly all actives have a fitted effect of over 50% in size;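 on activity change, negative = inhibition: CHO cells with doxycycline inducible ROR-gamma driving an RORE luciferase reporter; top concentration of the series differs between compounds; on the % scale 0 is the no-effect control and ±100 the full control effect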)
# Procedure, shortened: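 Inducible-expression reporter assay: doxycycline (1 uM final) switched on RORγ in CHO cells bearing a ROR response element-luciferase construct, with test compounds present from 2 h beforehand. Decreased luminescence after 16 h defined antagonist activity.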
# [8] = qHTS assay to identify small molecule agonists of the farnesoid-X-receptor (FXR) signaling pathway - cell viability counter screen (AID 743218); details: FXR-bla HEK293T viability, CellTiter-Glo luminescence, 16 h; viability change, negative = cytotoxic: at 62.6 µM (top of the series) unless noted; further: nearly all actives have a fitted effect of over 45% in size
# Procedure, shortened: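 Cells were seeded, left 5 h at 37 C and 5% CO2, then dosed with compound in DMSO for 16 h. After the beta-lactamase FRET read, CellTiter-Glo was added and luminescence measured 30 min later.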
# [9] = qHTS assay to identify small molecule agonists of the vitamin D receptor (VDR) signaling pathway - cell viability counter screen (AID 743224); details: VDR-bla HEK293T viability, CellTiter-Glo luminescence, 16 h; activity change, negative = cytotoxicity: at 62.6 µM (top of the series); further: nearly all actives have a fitted effect of over 50% in size
# Procedure, shortened: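 Cells: VDR-bla, 2,000/well, settled 4 h. Treatment: compounds in DMSO, 16 h, 37C/5% CO2. Readout: CellTiter-Glo luminescence after 30 min RT.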
# [10] = qHTS assay to identify small molecule agonists of the AP-1 signaling pathway - cell viability counter screen (AID 1159525; calls by dose curve; further: nearly all actives have a fitted effect of over 55% in size)
# Procedure, shortened: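 Each titration point was normalised to DMSO and tetra n-octyl ammonium bromide controls. The read was Cell Titer Glo luminescence after 30 min at RT, following 5 h compound exposure of ME-180 AP-1-bla cells at 37 °C.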
# [11] = qHTS assay to identify small molecule agonists of the AP-1 signaling pathway (AID 1159526; calls by dose curve); details: ME-180 (cervical carcinoma) AP-1-bla reporter, beta-lactamase FRET ratio, 5 h; activation: at 76.8 µM (top of the series) unless noted
# [12] = target: Peroxisome proliferator-activated receptor delta (Homo sapiens) (UniProt Q03181); experiment: qHTS assay to identify small molecule agonists of the peroxisome proliferator-activated receptor delta (PPARd) signaling pathway (AID 743212; calls by dose curve); details: HEK293H PPARd-UAS-bla, beta-lactamase FRET ratio, 17 h; activation: at 62.6 µM (top of the series) unless noted
# Procedure, shortened: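 Cells expressing a UAS-driven beta-lactamase reporter (PPARd-bla HEK293H) were given test compounds after a 5 h settle and kept at 37 C. Reporter activity was then measured as FRET fluorescence using LiveBLAzer B/G substrate.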
# [13] = target: Vitamin D3 receptor (Homo sapiens) (UniProt P11473); experiment: qHTS assay to identify small molecule antagonists of the vitamin D receptor (VDR) signaling pathway (AID 743223; active means well fitted inhibition curve with a large enough effect in the signal ratio in the repeat runs, not every such curve was filed as active; inconclusive means weak or mixed curves, or effect the other way; inactive means no such curve, though single readings can be large or run the other way; the % refers to the signal ratio); details: VDR-UAS-bla HEK293T, beta-lactamase FRET ratio, 16 h; activity change, negative = inhibition: at 61 µM (top of the series) unless noted
# Procedure, shortened: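 Quantitative HTS in VDR-bla reporter cells stimulated with 1alpha,25-dihydroxyvitamin D3, 3 nM final. Compound exposure 16 h, 37C, 5% CO2. Read-out: beta-lactamase FRET substrate fluorescence, 2 h RT.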
# [14] = target: Bile acid receptor (Homo sapiens) (UniProt Q96RI1); experiment: qHTS assay to identify small molecule antagonists of the farnesoid-X-receptor (FXR) signaling pathway (AID 743217; active means well fitted inhibition curve with a large enough effect in the signal ratio in the repeat runs, not every such curve was filed as active; inconclusive means weak or mixed curves, or effect the other way; inactive means no such curve, though single readings can be large or run the other way; the % refers to the signal ratio); details: HEK293T FXR-UAS-bla, beta-lactamase ratio, CDCA-stimulated, 16 h; activity change, negative = inhibition: at 62.6 µM (top of the series) unless noted
# Sequence of UniProt Q96RI1 (Q96RI1 whole entry, looked up): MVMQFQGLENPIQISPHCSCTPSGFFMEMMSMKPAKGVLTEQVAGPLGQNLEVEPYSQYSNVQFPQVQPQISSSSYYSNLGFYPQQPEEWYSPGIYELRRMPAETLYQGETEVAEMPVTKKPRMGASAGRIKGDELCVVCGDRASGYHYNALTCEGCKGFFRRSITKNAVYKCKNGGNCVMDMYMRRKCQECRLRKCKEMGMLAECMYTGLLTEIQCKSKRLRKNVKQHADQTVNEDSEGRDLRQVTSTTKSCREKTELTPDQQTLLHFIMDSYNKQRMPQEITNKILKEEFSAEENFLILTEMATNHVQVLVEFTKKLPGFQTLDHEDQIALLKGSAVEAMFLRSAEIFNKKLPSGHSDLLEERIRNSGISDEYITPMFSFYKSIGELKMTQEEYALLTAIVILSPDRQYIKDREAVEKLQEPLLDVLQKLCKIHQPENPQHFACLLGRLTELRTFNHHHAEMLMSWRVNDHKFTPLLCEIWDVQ
# Procedure, shortened: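 Cells carrying a UAS-driven beta-lactamase reporter (GeneBLAzer FXR-UAS-bla HEK 293T) were plated and rested 5 h at 37 °C. Compounds in DMSO were added alongside chenodeoxycholic acid agonist at 50 uM final and left 16 h at 37 °C before FRET substrate readout.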
# [15] = target: Bile acid receptor (Homo sapiens) (UniProt Q96RI1); experiment: qHTS assay to identify small molecule agonists of the farnesoid-X-receptor (FXR) signaling pathway (AID 743220; active means well fitted activation curve with a large enough effect in the signal ratio in the repeat runs, not every such curve was filed as active; inconclusive means weak or mixed curves, or effect the other way; the % refers to the signal ratio); details: HEK293T FXR-UAS-bla, beta-lactamase FRET ratio, 16 h; activation: at 62.6 µM (top of the series) unless noted
# Procedure, shortened: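 FXR-UAS-bla HEK 293T cells carrying a UAS-driven beta-lactamase reporter were plated for 5 h at 37C/5% CO2, then exposed to DMSO-dissolved Tox21 10K compounds for 16 h at 37C. A LiveBLAzer B/G FRET substrate was loaded for 2 h at room temperature before fluorescence reading.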
# [16] = qHTS assay to identify small molecule antagonists of the farnesoid-X-receptor (FXR) signaling pathway - cell viability counter screen (AID 743221; active means well fitted cell-killing curve with a large enough effect in the repeat runs, not every such curve was filed as active; inconclusive means weak or mixed curves, or effect the other way; inactive means no such curve, though single readings can be large or run the other way; further: nearly all actives have a fitted effect of over 50% in size); details: FXR-bla HEK293T viability, CellTiter-Glo luminescence, 16 h; activity change, negative = cytotoxicity: at 62.6 µM (top of the series)
# Procedure, shortened: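 Cytotoxicity is taken from ATP luminescence (CellTiter-Glo, 30 min, room temperature) in FXR-bla HEK 293T cells previously incubated 16 h at 37 C with compound and chenodeoxycholic acid at 50 uM final.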
# [17] = qHTS assay to identify small molecule agonists of the RXR signaling pathway - cell viability counter screen (AID 1159529); further: nearly all actives have a fitted effect of over 50% in size
# Procedure, shortened: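 Counter screen: CellTiter-Glo luminescence. Cells: RXR-alpha-UAS-bla HEK 293T. Medium: 2% charcoal-stripped FBS. Treatment: 16 h, 37 C. Reagent incubation: 30 min, RT.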
# [18] = qHTS assay to identify small molecule antagonists of the retinoid acid receptor (RAR) signaling pathway - cell viability counter screen (AID 1159551); further: nearly all actives have a fitted effect of over 35% in size
# Procedure, shortened: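 Cells (C3RL4) are plated, incubated overnight, dosed with compound in DMSO, then given retinol at 1 uM final. After 6 h at 37 C, CellTiter-Glo is added and luminescence read following 30 min at room temperature.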
# [19] = qHTS assay to identify small molecule antagonists of the peroxisome proliferator-activated receptor delta (PPARd) signaling pathway - cell viability counter screen (AID 743213); details: PPARd-bla HEK293H viability, CellTiter-Glo luminescence, 17 h; viability change, negative = cytotoxic: at 62 µM (top of the series) unless noted; further: nearly all actives have a fitted effect of over 50% in size
# Procedure, shortened: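 HEK293H PPARd UAS-bla cells, 5 h pre-incubation, compound + L165041 300 nM final, 17 h 37 C; B/G FRET substrate 2 h RT; then CellTiter-Glo 30 min RT, luminescence.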
# Potency means the concentration at half of the fitted maximal effect; tags describe the fitted curve by direction and shape or compound fluorescence and quenching.
smiles,measurement,setting,value
Oc1ccc2c(c1)-c1ccccc1C2,Potency,[1],inactive
same,Potency,[2],"inconclusive: 61.6 µM [cytotoxic, single point]"
same,Potency,[3],inconclusive: 54.9 µM [cytotoxic]
same,Potency,[4],"inconclusive: 68.6 µM [cytotoxic, single point]"
same,activation,[5],inconclusive: -9.8%
O=C1c2ccccc2C(=O)C1c1ccc2ccccc2n1,Potency,[6],"inconclusive: 0.385 µM [rising, full curve, poor fit]"
same,Potency,[3],inactive
same,Potency,[4],inactive
same,activation,[5],inconclusive: -12.8% [at 35.3 µM]
Cn1c(N)c(N=O)c(=O)n(C)c1=O,Potency,[3],inactive
same,Potency,[7],inactive
O=C1CCCCCN1SSN1CCCCCC1=O,Potency,[6],"inconclusive: 13.8 µM [rising, full curve, poor fit]"
same,Potency,[8],"inconclusive: 13.8 µM [rising, partial curve]"
same,Potency,[1],"inconclusive: 3.89 µM [rising, full curve, poor fit]"
same,Potency,[9],"inconclusive: 34.7 µM [cytotoxic, partial curve]"
same,Potency,[2],"inconclusive: 21.9 µM [cytotoxic, single point]"
same,Potency,[3],"inconclusive: 0.0138 µM [rising, full curve, poor fit]"
same,Potency,[4],"inconclusive: 54.5 µM [cytotoxic, partial curve]"
same,Potency,[10],"inconclusive: 54.9 µM [rising, single point]"
same,Potency,[11],"inconclusive: 43.6 µM [falling, partial curve]"
same,Potency,[5],"inconclusive: 49 µM [rising, partial curve, poor fit]"
CC(C)(c1cc(Br)c(OCC(Br)CBr)c(Br)c1)c1cc(Br)c(OCC(Br)CBr)c(Br)c1 (stereo not drawn),Potency,[12],"inconclusive: 26.8 µM [rising, single point]"
same,Potency,[13],inactive
same,activation,[3],inconclusive: 11.3%
same,Potency,[4],inactive
c1csc(SSc2cccs2)c1,Potency,[12],"inconclusive: 54.9 µM [rising, partial curve, poor fit]"
same,Potency,[14],inconclusive: 54.9 µM [single point]
same,Potency,[15],"inconclusive: 17.4 µM [activator, full curve]"
same,Potency,[16],"inconclusive: 34.7 µM [falling, partial curve]"
same,Potency,[1],inactive
same,Potency,[2],inactive
same,Potency,[3],inconclusive: 15.5 µM
same,Potency,[4],inconclusive: 77 µM [cytotoxic]
same,Potency,[11],inconclusive: 6.92 µM
same,Potency,[5],"inconclusive: 15.5 µM [rising, partial curve]"
same,Potency,[17],active: 38.9 µM
same,Potency,[18],"inconclusive: 24.3 µM [cytotoxic, partial curve, poor fit]"
CC(=O)Oc1ccc([N+](=O)[O-])cc1CCl,Potency,[8],"inconclusive: 0.219 µM [rising, full curve]"
same,Potency,[2],inactive
same,activation,[3],inconclusive: -11.7%
same,Potency,[4],"inconclusive: 54.5 µM [cytotoxic, partial curve]"
same,Potency,[10],inactive
same,Potency,[5],inactive
CCCCCCCCCCCCCCN(CCO)CCO,Potency,[12],inconclusive: 61.6 µM
same,Potency,[19],active: 49 µM
same,Potency,[6],"inconclusive: 27.5 µM [rising, partial curve]"
same,Potency,[14],active: 49 µM
same,Potency,[8],active: 43.6 µM
same,Potency,[15],"inconclusive: 54.9 µM [cytotoxic, single point]"
same,Potency,[16],"inconclusive: 61.6 µM [falling, single point]"
same,Potency,[13],inconclusive: 61.6 µM [single point]
same,Potency,[2],active: 43.6 µM
same,Potency,[3],"inconclusive: 19.5 µM [rising, single point]"
same,Potency,[7],active: 30.6 µM
same,Potency,[10],active: 54.9 µM
same,Potency,[11],inconclusive: 54.9 µM [cytotoxic]
same,Potency,[5],"inconclusive: 34.7 µM [cytotoxic, partial curve]"
same,Potency,[17],active: 21.9 µM
same,Potency,[18],active: 61.1 µM
CCCCCCCCCCCCCCCCCC(=O)OCC(CC)CCCC (stereo not drawn),Potency,[12],inactive
same,Potency,[3],"inconclusive: 21.9 µM [rising, single point]"
same,Potency,[4],inactive
same,Potency,[5],inactive
Cc1[nH]cnc1C[C@H]1CCc2c(C)c3ccccc3n2C1=O,activation,[12],inconclusive: -3.57%
same,Potency,[19],"inconclusive: 1.07 µM [cytotoxic, single point]"
same,Potency,[15],"inconclusive: 0.602 µM [rising, single point]"
same,"activity change, negative = inhibition",[13],inconclusive: 4.1%
same,Potency,[3],inconclusive: 23.9 µM [partial curve]
same,Potency,[4],"inconclusive: 59.6 µM [cytotoxic, partial curve, poor fit]"
same,Potency,[11],inconclusive: 33.8 µM
same,Potency,[5],"inconclusive: 30.1 µM [inhibitor, partial curve]"
same,Potency,[17],active: 19 µM
same,Potency,[18],"inconclusive: 66.9 µM [cytotoxic, partial curve, poor fit]"
